# Measured values as given in paper PMC4336329 (PLoS ONE, 2015).
# Among all 310,000 compounds or so, about 2,200 (0.71%) showed an effect of 50% or more. The effect is printed as a negative number. Some of the results follow.
# Molecular target: human ether-à-go-go-related gene (hERG) potassium channel (human, UniProt Q12809)
# Test: primary screen, population patch clamp on CHO cells stably expressing hERG
# Sequence of human ether-à-go-go-related gene (hERG) potassium channel (Q12809 whole entry, looked up): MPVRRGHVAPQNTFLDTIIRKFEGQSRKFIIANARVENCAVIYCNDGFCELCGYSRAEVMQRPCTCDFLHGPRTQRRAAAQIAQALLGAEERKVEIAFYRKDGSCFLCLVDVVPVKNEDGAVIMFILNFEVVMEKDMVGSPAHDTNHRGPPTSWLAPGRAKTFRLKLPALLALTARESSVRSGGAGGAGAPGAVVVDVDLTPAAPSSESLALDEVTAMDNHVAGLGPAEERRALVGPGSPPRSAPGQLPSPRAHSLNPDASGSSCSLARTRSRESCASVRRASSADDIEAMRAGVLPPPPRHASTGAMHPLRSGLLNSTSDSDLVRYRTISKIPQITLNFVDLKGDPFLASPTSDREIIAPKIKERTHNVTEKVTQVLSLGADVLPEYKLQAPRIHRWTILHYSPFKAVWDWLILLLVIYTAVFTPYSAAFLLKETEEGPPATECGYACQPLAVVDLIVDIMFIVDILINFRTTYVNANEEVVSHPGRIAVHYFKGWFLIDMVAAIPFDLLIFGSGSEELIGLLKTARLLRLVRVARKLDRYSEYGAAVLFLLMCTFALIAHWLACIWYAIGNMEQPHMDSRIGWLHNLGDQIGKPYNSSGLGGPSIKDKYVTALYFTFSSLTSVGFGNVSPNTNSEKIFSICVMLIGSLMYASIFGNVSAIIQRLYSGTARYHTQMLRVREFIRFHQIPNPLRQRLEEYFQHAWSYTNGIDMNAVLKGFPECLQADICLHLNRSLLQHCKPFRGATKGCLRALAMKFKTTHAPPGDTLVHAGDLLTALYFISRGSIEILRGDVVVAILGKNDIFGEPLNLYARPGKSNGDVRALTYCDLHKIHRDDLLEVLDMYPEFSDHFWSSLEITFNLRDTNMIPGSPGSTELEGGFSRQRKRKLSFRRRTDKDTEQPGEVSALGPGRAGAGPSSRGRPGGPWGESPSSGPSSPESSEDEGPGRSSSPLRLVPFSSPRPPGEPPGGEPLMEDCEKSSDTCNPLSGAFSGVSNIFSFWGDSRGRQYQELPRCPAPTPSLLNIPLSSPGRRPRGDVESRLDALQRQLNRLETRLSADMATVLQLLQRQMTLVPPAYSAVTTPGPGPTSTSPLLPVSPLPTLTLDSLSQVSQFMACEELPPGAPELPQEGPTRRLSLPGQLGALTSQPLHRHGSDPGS
row,Structure (SMILES),"hERG current change (%, negative = inhibition) at 1uM"
1,O=C(c1ccco1)N1CCN(c2ncnc3sc4c(c23)CCC4)CC1,-20.6%
2,CCCc1[nH]n(-c2ccc([N+](=O)[O-])cc2)c(=O)c1C=NCCc1c[nH]c2ccccc12,4.25%
3,Cc1sc2nc(CN3CCCCC3)nc(Nc3ccc4c(c3)OCCO4)c2c1C,-89.2%
4,CC(=O)Oc1ccc2c(c1)O/C(=C\c1ccncc1)C2=O,15.5%
5,Cc1cc(C)cc(NC(=O)c2ccc(CSc3nnnn3C)cc2)c1,7.56%
6,O=[N+]([O-])c1ccc(-c2ccccc2)c([As](=O)(O)O)c1,13.9%
7,COc1cc(CNc2nc3c(C)cc(C)cc3s2)ccc1O.Cl,15.9%
8,CC(C)(C)c1cc(=O)n2[nH]c(N)nc2n1,12.4%
9,Cc1ccc(-n2nc3c(Cl)nnc(C)c3c2C)cc1,6.41%
10,CCN(CC)CCCNc1nc2cc(OC)c(OC)cc2c2nc(-c3cccnc3)nn12,-2.35%
11,Cc1ccccc1C(=O)Nc1cccc(NC(=O)Cn2cnc3c(=O)n(C)c(=O)n(C)c32)c1,-5.29%
12,Clc1ccc(-c2cc(COc3ccccc3)no2)cc1Cl,7.7%
13,O=C1CCC(C(=O)N2CCCCO2)CN1Cc1cccc(F)c1 (stereo not shown),14.1%
14,Cl.O=c1[nH]c2ccccc2n1CCCN1CCCCC1,16.6%
15,CC(C)n1c(N2CCN(C(=O)N3CCCCC3)CC2)nc2ccccc21,9.25%
16,CC(NS(=O)(=O)CCNC(=O)c1ccccc1)c1ccccc1 (stereo not shown),12.3%
17,Cc1cc(C)cc(NC2=C(N)C(=O)c3ccccc3C2=O)c1,13.9%
18,O=c1c2ccccc2nc(-c2ccccc2)n1-n1cccc1,6.27%
19,CC(=O)Nc1ccc(-c2nnc(SCC(=O)Nc3ccc4c(c3)oc3ccccc34)n2C)cc1,18.8%
20,COc1ccc(OC)c2c(C)c(C)[nH]c12,2.1%
21,Cc1ccccc1NC(=O)COc1coc(CN2CCN(Cc3ccccc3)CC2)cc1=O,-16.2%
22,CCCCN1C(=O)C2ON(c3ccccc3C)C(c3ccco3)C2C1=O (stereo not shown),5.81%
23,CCOC(=O)C1CCN(C(=O)C2CCN(c3nn4c(=O)cc(C)nc4s3)CC2)CC1,20%
24,CCCCC(=O)Nc1ccc2c3c(cccc13)C(=O)N2CC,14.4%
25,S=c1[nH]nc(-c2cccc3ccccc23)n1-c1cccnc1,14.7%
26,CCOC1=NN(c2ccccc2)C(=O)/C1=C\N(C)C,6.84%
27,Cc1onc(-c2c(F)cccc2Cl)c1C(=O)N1CCCCC1,4.82%
28,O=C(Nc1ccccc1)N1CCCN(Cc2c(F)cccc2Cl)CC1,11.4%

row,Structure (SMILES),"hERG current change (%, negative = inhibition) at 1uM"
1,CCCCn1c(N)c(N(CC)C(=O)c2cc(Br)ccc2Cl)c(=O)[nH]c1=O,7.3%
2,O=C(C1CCC1)N1CCc2cc(S(=O)(=O)Nc3ccc4c(c3)OCCO4)ccc21,11%
3,CN(Cc1ccc(Cl)cc1)C(=O)COC(=O)CSc1ccc([N+](=O)[O-])cc1,5.82%
4,CC(=O)Nc1ccc(S(=O)(=O)N(C)CC(=O)Nc2ccccc2N2CCOCC2)cc1,6.76%
5,C[N+]1(CCOS(=O)C23CC4CC(CC(C4)C2)C3)CCOCC1.[Cl-] (stereo not shown),14.6%
6,O=C1/C(=C/c2ccc(F)cc2)Oc2cc(OC(=O)N3CCOCC3)ccc21,20.9%
7,O=[N+]([O-])/C(C(Cl)=C(Cl)Cl)=C(\Nc1ccc(F)cc1)n1cncn1,16.5%
8,COCCNC(=S)N(Cc1cccs1)Cc1cc2cccc(C)c2[nH]c1=O,15.9%
9,O=C(Nc1ccnn1C1CCN(CCCc2ccccc2)CC1)c1ccccc1Cl,-87.3%
10,COc1ccc(-c2csc(NS(=O)(=O)c3ccc([N+](=O)[O-])cc3)n2)cc1,13.3%
11,c1ccc2cc(C3N4CCCN34)ccc2c1 (stereo not shown),8.13%
12,Cc1nn(C)c(C)c1S(=O)(=O)N1CCC(C(=O)NCC2COc3ccccc3O2)CC1 (stereo not shown),5.18%
13,CN(C)Cc1c(C(=O)N/N=C/c2ccccc2OCc2c(F)cccc2Cl)nnn1-c1nonc1N,20.8%
14,CCc1nnnn1-c1ccc([N+](=O)[O-])cc1C,3.66%
15,Cc1ccccc1-c1ncc(CN2CCN(C3CCCCC3)C(CCO)C2)cn1 (stereo not shown),-6.66%
16,CCCn1nnnc1SCC(=O)Nc1sc(C)c(C)c1C#N,8.83%
17,CCN(CC)CCNC(=O)CS(=O)Cc1nc(-c2ccc(Cl)cc2)oc1C (stereo not shown),-5.6%
18,O=C(CCCn1c(=S)[nH]c2cc3c(cc2c1=O)OCO3)NCc1ccccc1Cl,14%
19,S=C1CN=C(c2ccccc2Cl)c2cc(Cl)ccc2N1,8.44%
20,C=CCn1c(=O)n(CCOC)c(=O)c2sc3ccccc3c21,0.14%
21,CC(C)[C@H](NC(=O)N1c2ccccc2NC(=O)[C@@H]1C(C)C)C(=O)N[C@@H](C(=O)O)c1ccccc1,13%
22,CCc1ccc(-c2cc(C(F)(F)F)n3nc(C(=O)Nc4cnn(Cc5ccccc5C)c4)cc3n2)s1,11.3%
23,O=C(Cc1cccc(C(F)(F)F)c1)Nc1ccccc1N1CCCC1,1.28%
24,COC(=O)c1c(C)[nH]c(C(=O)C(C)OC(=O)C2=NNC(=O)CC2)c1C (stereo not shown),3.65%
25,O=C(O)[C@H]1CCCN1C(=O)c1ccccc1N1C(=O)[C@@H]2Cc3c([nH]c4ccccc34)C(c3cccc(Cl)c3)N2C1=O (stereo partly shown),8.94%
26,C/C(=N\NC(N)=O)c1ccccc1,24%
27,COc1ccc(-n2cnnc2SC(C)C(=O)Nc2cccc([N+](=O)[O-])c2)cc1 (stereo not shown),-16%
